Measurements taken from PubChem BioAssay (NCI).
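Protocol summary: plate cells (96-well), add compound at 5 concentrations, incubate 48 h, interpolate endpoints linearly. GI50 marks 50% less growth. TGI: concentration producing complete growth inhibition.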

Tested on: NCI-H322M lung
Assay: growth of human tumour cells (NCI), 48 h

Row | SMILES | GI50 [µM] | TGI [µM]
1 | Nc1nc(-c2cccc([N+](=O)[O-])c2)c(N=Nc2cccc([N+](=O)[O-])c2)s1 | > 100 | > 100
2 | COc1ccc2[nH]cc(-c3csc4nc(-c5ccccc5)cn34)c2c1 | 0.652 | > 100
